Reference: publication PMC9911399, “Two distinct binding modes provide the RNA-binding protein RbFox with extraordinary sequence specificity”
Positions count from the first letter of the chain named. The list shows a part of the results.

T1: RBFOX1 RRM (Homo sapiens, UniProt Q9NWB1 109-208)
T1 sequence: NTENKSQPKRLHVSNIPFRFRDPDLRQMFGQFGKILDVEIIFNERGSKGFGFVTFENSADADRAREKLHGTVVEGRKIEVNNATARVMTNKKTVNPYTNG

B1: CGUACGC (DNA:RNA)
RNA: GGGAGACCGGAAUUCAGAUUGUCCCGUACGCUUAAAUCCCGUCGUAGCCACCA
DNA 1: CAATCTGAATTCCGGTCTCCC
DNA 2: TGGTGGCTACGACGGGATT
B2: GGCAAUG (DNA:RNA)
RNA: B1 RNA with C25G, U27C, C29A, G30U, C31G
DNA 1: CAATCTGAATTCCGGTCTCCC
DNA 2: TGGTGGCTACGACGGGATT
B3: CAACGAA (DNA:RNA)
RNA: B1 RNA with G26A, U27A, A28C, C29G, G30A, C31A
DNA 1: CAATCTGAATTCCGGTCTCCC
DNA 2: TGGTGGCTACGACGGGATT
B4: UAAGAGA (DNA:RNA)
RNA: B1 RNA with C25U, G26A, U27A, A28G, C29A, C31A
DNA 1: CAATCTGAATTCCGGTCTCCC
DNA 2: TGGTGGCTACGACGGGATT
B5: GCAGAUG (DNA:RNA)
RNA: GGGAGACCGGAAUUCAGAUUGUCCGCAGAUGUUAAAUCCCGUCGUAGCCACCA
DNA 1: CAATCTGAATTCCGGTCTCCC
DNA 2: TGGTGGCTACGACGGGATT
B6: CCACGGA (DNA:RNA)
RNA: B1 RNA with G26C, U27A, A28C, C29G, C31A
DNA 1: CAATCTGAATTCCGGTCTCCC
DNA 2: TGGTGGCTACGACGGGATT
B7: ACCAGCG (DNA:RNA)
RNA: B5 RNA with G25A, A27C, G28A, A29G, U30C
DNA 1: CAATCTGAATTCCGGTCTCCC
DNA 2: TGGTGGCTACGACGGGATT
B8: CAAUUAC (DNA:RNA)
RNA: B1 RNA with G26A, U27A, A28U, C29U, G30A
DNA 1: CAATCTGAATTCCGGTCTCCC
DNA 2: TGGTGGCTACGACGGGATT
B9: GCGUACC (DNA:RNA)
RNA: B5 RNA with A27G, G28U, U30C, G31C
DNA 1: CAATCTGAATTCCGGTCTCCC
DNA 2: TGGTGGCTACGACGGGATT
B10: AGAAGGU (DNA:RNA)
RNA: B1 RNA with C25A, U27A, C29G, C31U
DNA 1: CAATCTGAATTCCGGTCTCCC
DNA 2: TGGTGGCTACGACGGGATT
B11: UCAGUGU (DNA:RNA)
RNA: B5 RNA with G25U, A29U, U30G, G31U
DNA 1: CAATCTGAATTCCGGTCTCCC
DNA 2: TGGTGGCTACGACGGGATT
B12: UCCCGCU (DNA:RNA)
RNA: B5 RNA with G25U, A27C, G28C, A29G, U30C, G31U
DNA 1: CAATCTGAATTCCGGTCTCCC
DNA 2: TGGTGGCTACGACGGGATT
B13: CGCAGCA (DNA:RNA)
RNA: B1 RNA with U27C, C29G, G30C, C31A
DNA 1: CAATCTGAATTCCGGTCTCCC
DNA 2: TGGTGGCTACGACGGGATT
B14: CUCGAUC (DNA:RNA)
RNA: B5 RNA with G25C, C26U, A27C, G31C
DNA 1: CAATCTGAATTCCGGTCTCCC
DNA 2: TGGTGGCTACGACGGGATT
B15: AGAACGU (DNA:RNA)
RNA: B1 RNA with C25A, U27A, C31U
DNA 1: CAATCTGAATTCCGGTCTCCC
DNA 2: TGGTGGCTACGACGGGATT
B16: GGUUACG (DNA:RNA)
RNA: B5 RNA with C26G, A27U, G28U, U30C
DNA 1: CAATCTGAATTCCGGTCTCCC
DNA 2: TGGTGGCTACGACGGGATT
B17: UUACGCG (DNA:RNA)
RNA: B5 RNA with G25U, C26U, G28C, A29G, U30C
DNA 1: CAATCTGAATTCCGGTCTCCC
DNA 2: TGGTGGCTACGACGGGATT
B18: AUUUCUC (DNA:RNA)
RNA: B1 RNA with C25A, G26U, A28U, G30U
DNA 1: CAATCTGAATTCCGGTCTCCC
DNA 2: TGGTGGCTACGACGGGATT
B19: AAUGACC (DNA:RNA)
RNA: B1 RNA with C25A, G26A, A28G, C29A, G30C
DNA 1: CAATCTGAATTCCGGTCTCCC
DNA 2: TGGTGGCTACGACGGGATT
B20: AUUGUCU (DNA:RNA)
RNA: B1 RNA with C25A, G26U, A28G, C29U, G30C, C31U
DNA 1: CAATCTGAATTCCGGTCTCCC
DNA 2: TGGTGGCTACGACGGGATT
B21: AGGCUGG (DNA:RNA)
RNA: B1 RNA with C25A, U27G, A28C, C29U, C31G
DNA 1: CAATCTGAATTCCGGTCTCCC
DNA 2: TGGTGGCTACGACGGGATT
B22: UCGUUUG (DNA:RNA)
RNA: B5 RNA with G25U, A27G, G28U, A29U
DNA 1: CAATCTGAATTCCGGTCTCCC
DNA 2: TGGTGGCTACGACGGGATT
B23: GUUGAAC (DNA:RNA)
RNA: B5 RNA with C26U, A27U, U30A, G31C
DNA 1: CAATCTGAATTCCGGTCTCCC
DNA 2: TGGTGGCTACGACGGGATT
B24: CGGCAAG (DNA:RNA)
RNA: B1 RNA with U27G, A28C, C29A, G30A, C31G
DNA 1: CAATCTGAATTCCGGTCTCCC
DNA 2: TGGTGGCTACGACGGGATT
B25: GAUCUUG (DNA:RNA)
RNA: B5 RNA with C26A, A27U, G28C, A29U
DNA 1: CAATCTGAATTCCGGTCTCCC
DNA 2: TGGTGGCTACGACGGGATT
B26: AAUCCGG (DNA:RNA)
RNA: B1 RNA with C25A, G26A, A28C, C31G
DNA 1: CAATCTGAATTCCGGTCTCCC
DNA 2: TGGTGGCTACGACGGGATT
B27: AGUAAUG (DNA:RNA)
RNA: B1 RNA with C25A, C29A, G30U, C31G
DNA 1: CAATCTGAATTCCGGTCTCCC
DNA 2: TGGTGGCTACGACGGGATT
B28: CCCUUGG (DNA:RNA)
RNA: B1 RNA with G26C, U27C, A28U, C29U, C31G
DNA 1: CAATCTGAATTCCGGTCTCCC
DNA 2: TGGTGGCTACGACGGGATT
B29: CGUACAC (DNA:RNA)
RNA: B1 RNA with G30A
DNA 1: CAATCTGAATTCCGGTCTCCC
DNA 2: TGGTGGCTACGACGGGATT
B30: CAGGUAU (DNA:RNA)
RNA: B1 RNA with G26A, U27G, A28G, C29U, G30A, C31U
DNA 1: CAATCTGAATTCCGGTCTCCC
DNA 2: TGGTGGCTACGACGGGATT
B31: CCGACCA (DNA:RNA)
RNA: B1 RNA with G26C, U27G, G30C, C31A
DNA 1: CAATCTGAATTCCGGTCTCCC
DNA 2: TGGTGGCTACGACGGGATT

target: T1, RBFOX1 RRM; assay: EMSA; HiTS-Eq, 1 nM pool, 10 min; buffer printed only for the single-RNA assays: 10 mM Tris pH 7.5, 150 mM NaCl, 3.4 mM EDTA, 0.001% NP-40, 30 C; conditions: tags: His6 N-terminal (pET28a); label: 5' 32P
Method in brief: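 Purified RbFox RRM (wild type or mutant) was equilibrated for 10 min in 50 µL with 1 nM of a 5′-radiolabelled pool of RNA with 7 randomized nucleotides, its flanks annealed to DNA oligonucleotides, across increasing protein concentrations. Free RNA was separated by 8% native PAGE, excised, reverse-transcribed, PCR-barcoded and sequenced on an Illumina HiSeq 2500. Relative association constants came from read-count changes of each variant against the control reaction, normalised to the cognate motif.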

Binder	binding signal
B1	0.00961 KA relative to UGCAUGU
B2	0.0118 KA relative to UGCAUGU
B3	0.00666 KA relative to UGCAUGU
B4	0.00895 KA relative to UGCAUGU
B5	0.0112 KA relative to UGCAUGU
B6	0.0114 KA relative to UGCAUGU
B7	0.00395 KA relative to UGCAUGU
B8	0.00102 KA relative to UGCAUGU
B9	0.00754 KA relative to UGCAUGU
B10	0.0126 KA relative to UGCAUGU
B11	0.0168 KA relative to UGCAUGU
B12	0.00783 KA relative to UGCAUGU
B13	0.0141 KA relative to UGCAUGU
B14	0.0108 KA relative to UGCAUGU
B15	0.00757 KA relative to UGCAUGU
B16	0.00943 KA relative to UGCAUGU

Binder	binding signal
B17	0.0137 KA relative to UGCAUGU
B18	0.00528 KA relative to UGCAUGU
B19	0.00648 KA relative to UGCAUGU
B20	0.0119 KA relative to UGCAUGU
B21	0.0243 KA relative to UGCAUGU
B22	0.0244 KA relative to UGCAUGU
B23	0.0165 KA relative to UGCAUGU
B24	0.0154 KA relative to UGCAUGU
B25	0.0196 KA relative to UGCAUGU
B26	0.00117 KA relative to UGCAUGU
B27	0.0141 KA relative to UGCAUGU
B28	0.00891 KA relative to UGCAUGU
B29	0.00199 KA relative to UGCAUGU
B30	0.00835 KA relative to UGCAUGU
B31	0.00111 KA relative to UGCAUGU
